From PubChem BioAssay (Tox21)
Inconclusive means that the source gave no clear call. Such entries were picked first, then a sample of the others. Potencies of inconclusive entries are left out as doubtful fits. Active and inactive are the calls of the source. Calls come from the whole dose curve; as a rule, active = well fitted cell-killing curve with a large enough effect in the repeat runs; inconclusive = weak or mixed curves; inactive = flat fitted curve, though single readings scatter.
% is set by controls: 0 for no effect and ±100 for the full control effect; potency is the fitted concentration of half-maximal effect; tags give direction and shape of the fitted curve.

Assay: qHTS assay to identify small molecule antagonists of the TGF-beta/Smad signaling pathway - cell viability counter screen (AID 1346824); note: nearly all actives have a fitted effect of over 50% in size
Conditions: SBE-bla HEK293T viability, CellTiter-Glo luminescence; series mostly up to 76.8 µM
Excerpt: U.S. Tox21 Program National Center for Advancing Translational Sciences [NCATS] NIH Chemical Genomics Center [NCGC] U.S. Environmental Protection Agency [EPA] National Institutes of Environmental Health Sciences [NIEHS] National Toxicology Program [NTP] U.S. Food and Drug Administration [FDA] Tox21 Assay Overview: Transforming growth factor beta (TGF-beta) superfamily consists of a large number of structurally related dimeric proteins that act as hormones or local mediators in regulating a wide range of biological functions. This superfamily includes TGF-betas themselves, the bone morphogenetic proteins (BMPs) and the activins. These ligands induce oligomerization of serine/threonine receptor kinases and phosphorylate the cytoplasmic signaling molecules of Smad protein family. CellSensor SBE-bla HEK 293T cell line (Life Technologies, Carlsbad, CA), responsive to TGF-beta was used to screen Tox21 10K compound library for identification of agonists/antagonists of the Smad signaling pathway. This cell line contains a beta-lactamase reporter gene under control of the Smad binding element (SBE) stably integrated into HEK 293T cells. Also cytotoxicity of the compounds was tested in parallel by measuring the cell viability using CellTiter-Glo assay system in the same wells.
Tox21 Assay Protocol Summary: SBE-bla HEK 293T cells were dispensed at 4,000/well in 5 uL of assay medium into black wall/clear-bottom 1536-well plates using a Multidrop Combi (ThermoFisher Scientific, Waltham, MA) dispenser. After the assay plates were incubated at 37 C and 5% CO2 for an overnight, 23 nL of compounds dissolved in DMSO, positive controls or DMSO only was transferred to the assay plate by a Pintool station (Kalypsys, San Diego, CA). Compound transfer was followed by the addition of 1 uL of 0.25 ng/mL TGF-beta1 or assay buffer using two separate tips of Flying Reagent Dispenser (FRD, Aurora Discovery, San Diego, CA). The assay plates were incubated at 37 C and 5% CO2 for 5 hr. One uL of LiveBLAzer B/G FRET substrate (Life Technologies) was added using a Flying Reagent Dispenser (FRD, Aurora Discovery, San Diego, CA) and the plates were incubated at room temperature for 2 hr. Fluorescence intensity (405 nm excitation, 460 nm and 530 nm emissions) was measured using an Envision plate reader (PerkinElmer, Shelton, CT). For cytotoxicity read, 4 uL of CellTiter-Glo reagent (Promega Corporation, Madison, WI) was added to each well of the assay plates using FRD. After 30 min incubation at room temperature, the luminescence intensity was measured using ViewLux plate reader (PerkinElmer).
With `CC(C)CNCC(C)C` the Potency was “inactive”. In the case of `CC(=O)Nc1ccc(S(N)(=O)=O)cc1`, the Potency was inconclusive [cytotoxic, partial curve, poor fit]. With `COc1nc(N)nc2c1ncn2[C@@H]1O[C@H](CO)[C@@H](O)[C@@H]1O` the Potency was “inactive”. With `CCCCNCCCC` the Potency was “inactive”. For `Nc1ccccn1`, the Potency was “inactive”. In the case of `CCC1(C)CC(=O)NC1=O` (stereo not given), the Potency was “inactive”. In the case of `C=C1C[C@]23C[C@@]1(O)CC[C@H]2[C@@]12C=C[C@H](O)[C@@](C)(C(=O)O1)[C@H]2[C@@H]3C(=O)O`, the Potency was “inactive”. With `O=C[C@H](O)[C@@H](O)[C@H](O)[C@H](O)CO` the Potency was “inactive”. For `Cc1nc2n(c(=O)c1CCN1CCC(c3noc4cc(F)ccc34)CC1)CCC[C@H]2O`, the viability change, negative = cytotoxic was inactive: 1.49% [at 15.8 µM]. With `CCc1occc(=O)c1O` the Potency was “inactive”. With `OC[C@H]1O[C@@H]2O[C@H]3[C@H](O)[C@@H](O)[C@@H](O[C@H]4[C@H](O)[C@@H](O)[C@@H](O[C@H]5[C@H](O)[C@@H](O)[C@@H](O[C@H]6[C@H](O)[C@@H](O)[C@@H](O[C@H]7[C@H](O)[C@@H](O)[C@@H](O[C@H]8[C@H](O)[C@@H](O)[C@@H](O[C@H]9[C@H](O)[C@@H](O)[C@@H](O[C@H]1[C@H](O)[C@H]2O)O[C@@H]9CO)O[C@@H]8CO)O[C@@H]7CO)O[C@@H]6CO)O[C@@H]5CO)O[C@@H]4CO)O[C@@H]3CO` the Potency was “inactive”. For `O=C(O)c1[nH]n(-c2ccc(S(=O)(=O)O)cc2)c(=O)c1N=Nc1ccc(S(=O)(=O)O)cc1`, the Potency was “inactive”. In the case of `CC1(c2ccccc2)OC(C(=O)O)=CC1=O` (stereo not given), the Potency was inconclusive [cytotoxic, single point]. With `CCn1cc(C(=O)O)c(=O)c2cc(F)c(N3CCNCC3)nc21` the Potency was “inactive”. With `CC(C)=CC(C)(C)C` the Potency was inconclusive [cytotoxic, single point]. With `CC(=O)Nc1ccc(S(=O)(=O)Nc2cc(C)on2)cc1` the Potency was “inactive”. In the case of `CCCCOC(=O)C(C)OC(=O)CCC` (stereo not given), the Potency was inconclusive [cytotoxic, partial curve, poor fit]. With `NCCN1CCNC1=O` the Potency was inconclusive [cytotoxic, full curve, poor fit]. In the case of `CCc1ncc(C)[nH]1`, the Potency was “inactive”. In the case of `COC(C)(OC)OC`, the Potency was “inactive”. With `CCOC(=O)[C@H](O)[C@@H](O)C(=O)OCC` the Potency was inconclusive [cytotoxic, single point]. With `O=C(CO)[C@@H](O)[C@H](O)[C@@H](O)CO` the Potency was “inactive”. With `CC(C)Cn1cnc2c1c(=O)n(C)c(=O)n2C` the Potency was “inactive”. For `O=C1NC(c2ccccc2)(c2ccccc2)C(=O)N1COP(=O)(O)O`, the Potency was “inactive”. For `Cc1cc(N)no1`, the Potency was inconclusive [cytotoxic, single point]. In the case of `CCOC(=O)c1ccccc1O`, the Potency was inconclusive [cytotoxic, single point]. With `COC(=O)CSc1cc(N=c2sc(=O)n3n2CCCC3)c(F)cc1Cl` the Potency was inconclusive [cytotoxic, single point]. With `CC(C)(C)OC(=O)c1ccc(O)cc1` the Potency was inconclusive [cytotoxic, single point]. In the case of `CC(C)[C@H]1CC[C@@H](C)CC1=O`, the Potency was inconclusive [cytotoxic, single point]. With `C=C(C)C(=O)NCCCN(C)C` the Potency was “inactive”. In the case of `C=C(C)C(=O)OCCOC1CC2CC1C1C=CCC21` (stereo not given), the Potency was inconclusive [cytotoxic, single point]. With `CCCC(CCC)(C(=O)OCC)C(=O)OCC` the Potency was inconclusive [cytotoxic]. In the case of `N#Cc1ccc(CC(=O)c2cccc(C(F)(F)F)c2)cc1`, the Potency was inconclusive [cytotoxic, single point]. For `CCC1(C)C(=O)N(Cl)C(=O)N1Cl` (stereo not given), the Potency was inconclusive [cytotoxic, single point]. For `CCCCC(CC)C(=O)OC(C)C` (stereo not given), the Potency was inconclusive [cytotoxic, single point]. For `CNC(=O)NC`, the Potency was inconclusive [cytotoxic, single point]. For `COc1ccc(C(=O)c2ccc(C)cc2)c(O)c1`, the Potency was inconclusive [cytotoxic, partial curve, poor fit]. With `Cc1cc(C)cc([N+](=O)[O-])c1` the Potency was “inactive”. With `O=C(OCCN1CCOCC1)c1cccnc1Nc1cccc(C(F)(F)F)c1` the Potency was “inactive”. In the case of `O=S1(=O)N=C(O)c2ccccc21`, the Potency was “inactive”.
